Experimental data from patent publication US20250011379A1 (VERTEX PHARMACEUTICALS, published 2025).
Each block holds one binder with its values, some of them ahead of it.

Target: T1, human C4b (human, UniProt P0C0L5 20-1744)
T1 chain 1: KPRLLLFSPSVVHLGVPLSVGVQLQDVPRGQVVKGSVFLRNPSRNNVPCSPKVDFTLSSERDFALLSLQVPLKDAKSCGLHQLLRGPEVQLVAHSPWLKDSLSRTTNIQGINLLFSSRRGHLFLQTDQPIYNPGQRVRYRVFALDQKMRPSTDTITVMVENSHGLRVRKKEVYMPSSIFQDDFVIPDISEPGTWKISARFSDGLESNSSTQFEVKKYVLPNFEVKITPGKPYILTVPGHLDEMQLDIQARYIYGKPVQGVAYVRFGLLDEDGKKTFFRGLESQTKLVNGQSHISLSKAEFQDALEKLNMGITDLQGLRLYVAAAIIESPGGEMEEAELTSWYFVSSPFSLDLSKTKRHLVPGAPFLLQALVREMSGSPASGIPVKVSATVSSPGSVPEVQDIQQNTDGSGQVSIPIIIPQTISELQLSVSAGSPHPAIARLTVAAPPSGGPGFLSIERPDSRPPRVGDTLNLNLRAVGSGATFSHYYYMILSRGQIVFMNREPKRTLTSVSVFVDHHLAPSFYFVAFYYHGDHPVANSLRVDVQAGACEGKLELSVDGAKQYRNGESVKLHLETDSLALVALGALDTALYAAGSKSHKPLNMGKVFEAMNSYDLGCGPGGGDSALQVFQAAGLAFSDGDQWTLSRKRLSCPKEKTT
T1 chain 2: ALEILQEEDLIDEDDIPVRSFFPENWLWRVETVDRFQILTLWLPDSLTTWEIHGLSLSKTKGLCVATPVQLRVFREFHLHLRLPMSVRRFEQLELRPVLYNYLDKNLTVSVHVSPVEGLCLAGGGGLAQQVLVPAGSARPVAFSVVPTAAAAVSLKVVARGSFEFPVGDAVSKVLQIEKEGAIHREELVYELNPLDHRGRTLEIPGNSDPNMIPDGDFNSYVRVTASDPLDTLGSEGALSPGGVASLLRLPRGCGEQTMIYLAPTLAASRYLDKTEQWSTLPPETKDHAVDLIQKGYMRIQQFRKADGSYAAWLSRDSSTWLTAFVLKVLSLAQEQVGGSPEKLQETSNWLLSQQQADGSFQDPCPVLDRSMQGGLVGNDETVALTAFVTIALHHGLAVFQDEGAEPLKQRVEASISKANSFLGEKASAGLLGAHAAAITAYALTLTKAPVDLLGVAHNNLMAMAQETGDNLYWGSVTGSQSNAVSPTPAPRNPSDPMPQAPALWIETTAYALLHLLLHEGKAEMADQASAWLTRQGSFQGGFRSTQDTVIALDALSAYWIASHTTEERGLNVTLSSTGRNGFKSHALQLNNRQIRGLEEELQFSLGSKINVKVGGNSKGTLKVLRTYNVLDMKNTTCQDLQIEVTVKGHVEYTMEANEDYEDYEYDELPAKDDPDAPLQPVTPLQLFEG
T1 chain 3: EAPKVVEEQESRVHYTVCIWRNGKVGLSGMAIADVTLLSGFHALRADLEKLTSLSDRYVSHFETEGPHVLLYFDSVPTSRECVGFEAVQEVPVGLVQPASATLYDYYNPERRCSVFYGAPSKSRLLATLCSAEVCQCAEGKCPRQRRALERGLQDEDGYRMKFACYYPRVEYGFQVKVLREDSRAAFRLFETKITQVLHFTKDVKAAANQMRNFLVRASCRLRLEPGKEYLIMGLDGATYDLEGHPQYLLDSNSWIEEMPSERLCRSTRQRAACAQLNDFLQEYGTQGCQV
Experiment: cell-based or functional assay

C4c EC50: 367 nM
B1: Const. No. 60: HSA-GGSSGG-hCFI; K368D (enzyme)
chain: [not shown - about 600 residues]GGSSGGKVTYTSQEDLVEKKCLAKKYTHLSCDKVFCQPWQRCIEGTCVCKLPYQCPKNGTAVCATNRRSFPTYCQQKSLECLHPGTKFLNNGTCTAEGKFSVSLKHGNTDSEGIVEVKLVDQDKTMFICKSSWSMREANVACLDLGFQQGADTQRRFKLSDLSINSTECLHVHCRGLETSLAECTFTKRRTMGYQDFADVVCYTQKADSPMDDFFQCVNGKYISQMKACDGINDCGDQSDELCCKACQGKGFHCKSGVCIPSQYQCNGEVDCITGEDEVGCAGFASVTQEETEILTADMDAERRRIKSLLPKLSCGVKNRMHIRRKRIVGGKRAQLGDLPWQVAIKDASGITCGGIYIGGCWILTAAHCLRASDTHRYQIWTTVVDWIHPDLKRIVIEYVDRIIFHENYNAGTYQNDIALIEMKKDGNKKDCELPRSIPACVPWSPYLFQPNDTCIVSGWGREKDNERVFSLQWGEVKLISNCSKFYGNRFYEKEMECAGTYDGSIDACKGDSGGPLVCMDANNVTYVWGVVSWGENCGKPEFPGVYTKVANYFDWISYHVGRPFISQYNV

C4c EC50: 90.4 nM
B2: Const. No. 28: HSA-GGSSGG-hCFI; E401A (enzyme)
chain: [not shown - about 600 residues]GGSSGGKVTYTSQEDLVEKKCLAKKYTHLSCDKVFCQPWQRCIEGTCVCKLPYQCPKNGTAVCATNRRSFPTYCQQKSLECLHPGTKFLNNGTCTAEGKFSVSLKHGNTDSEGIVEVKLVDQDKTMFICKSSWSMREANVACLDLGFQQGADTQRRFKLSDLSINSTECLHVHCRGLETSLAECTFTKRRTMGYQDFADVVCYTQKADSPMDDFFQCVNGKYISQMKACDGINDCGDQSDELCCKACQGKGFHCKSGVCIPSQYQCNGEVDCITGEDEVGCAGFASVTQEETEILTADMDAERRRIKSLLPKLSCGVKNRMHIRRKRIVGGKRAQLGDLPWQVAIKDASGITCGGIYIGGCWILTAAHCLRASKTHRYQIWTTVVDWIHPDLKRIVIEYVDRIIFHANYNAGTYQNDIALIEMKKDGNKKDCELPRSIPACVPWSPYLFQPNDTCIVSGWGREKDNERVFSLQWGEVKLISNCSKFYGNRFYEKEMECAGTYDGSIDACKGDSGGPLVCMDANNVTYVWGVVSWGENCGKPEFPGVYTKVANYFDWISYHVGRPFISQYNV

C4c EC50: 379 nM
B3: Const. No. 42: HSA-GGSSGG-hCFI; L73D (enzyme)
chain: [not shown - about 600 residues]GGSSGGKVTYTSQEDLVEKKCLAKKYTHLSCDKVFCQPWQRCIEGTCVCKLPYQCPKNGTAVCATNRRSFPTYCQQKSDECLHPGTKFLNNGTCTAEGKFSVSLKHGNTDSEGIVEVKLVDQDKTMFICKSSWSMREANVACLDLGFQQGADTQRRFKLSDLSINSTECLHVHCRGLETSLAECTFTKRRTMGYQDFADVVCYTQKADSPMDDFFQCVNGKYISQMKACDGINDCGDQSDELCCKACQGKGFHCKSGVCIPSQYQCNGEVDCITGEDEVGCAGFASVTQEETEILTADMDAERRRIKSLLPKLSCGVKNRMHIRRKRIVGGKRAQLGDLPWQVAIKDASGITCGGIYIGGCWILTAAHCLRASKTHRYQIWTTVVDWIHPDLKRIVIEYVDRIIFHENYNAGTYQNDIALIEMKKDGNKKDCELPRSIPACVPWSPYLFQPNDTCIVSGWGREKDNERVFSLQWGEVKLISNCSKFYGNRFYEKEMECAGTYDGSIDACKGDSGGPLVCMDANNVTYVWGVVSWGENCGKPEFPGVYTKVANYFDWISYHVGRPFISQYNV

C4c EC50: 104 nM
B4: Const. No. 6: HSA-GGSSGG-hCFI; L307Y (enzyme)
chain: [not shown - about 600 residues]GGSSGGKVTYTSQEDLVEKKCLAKKYTHLSCDKVFCQPWQRCIEGTCVCKLPYQCPKNGTAVCATNRRSFPTYCQQKSLECLHPGTKFLNNGTCTAEGKFSVSLKHGNTDSEGIVEVKLVDQDKTMFICKSSWSMREANVACLDLGFQQGADTQRRFKLSDLSINSTECLHVHCRGLETSLAECTFTKRRTMGYQDFADVVCYTQKADSPMDDFFQCVNGKYISQMKACDGINDCGDQSDELCCKACQGKGFHCKSGVCIPSQYQCNGEVDCITGEDEVGCAGFASVTQEETEILTADMDAERRRIKSLLPKYSCGVKNRMHIRRKRIVGGKRAQLGDLPWQVAIKDASGITCGGIYIGGCWILTAAHCLRASKTHRYQIWTTVVDWIHPDLKRIVIEYVDRIIFHENYNAGTYQNDIALIEMKKDGNKKDCELPRSIPACVPWSPYLFQPNDTCIVSGWGREKDNERVFSLQWGEVKLISNCSKFYGNRFYEKEMECAGTYDGSIDACKGDSGGPLVCMDANNVTYVWGVVSWGENCGKPEFPGVYTKVANYFDWISYHVGRPFISQYNV

C4c EC50: 489 nM
B5: Const. No. 15: HSA-GGSSGG-hCFI; S499K (enzyme)
chain: [not shown - about 600 residues]GGSSGGKVTYTSQEDLVEKKCLAKKYTHLSCDKVFCQPWQRCIEGTCVCKLPYQCPKNGTAVCATNRRSFPTYCQQKSLECLHPGTKFLNNGTCTAEGKFSVSLKHGNTDSEGIVEVKLVDQDKTMFICKSSWSMREANVACLDLGFQQGADTQRRFKLSDLSINSTECLHVHCRGLETSLAECTFTKRRTMGYQDFADVVCYTQKADSPMDDFFQCVNGKYISQMKACDGINDCGDQSDELCCKACQGKGFHCKSGVCIPSQYQCNGEVDCITGEDEVGCAGFASVTQEETEILTADMDAERRRIKSLLPKLSCGVKNRMHIRRKRIVGGKRAQLGDLPWQVAIKDASGITCGGIYIGGCWILTAAHCLRASKTHRYQIWTTVVDWIHPDLKRIVIEYVDRIIFHENYNAGTYQNDIALIEMKKDGNKKDCELPRSIPACVPWSPYLFQPNDTCIVSGWGREKDNERVFSLQWGEVKLISNCSKFYGNRFYEKEMECAGTYDGKIDACKGDSGGPLVCMDANNVTYVWGVVSWGENCGKPEFPGVYTKVANYFDWISYHVGRPFISQYNV

C4c EC50: 240 nM
B6: Const. No. 21: HSA-GGSSGG-hCFI; K423R (enzyme)
chain: [not shown - about 600 residues]GGSSGGKVTYTSQEDLVEKKCLAKKYTHLSCDKVFCQPWQRCIEGTCVCKLPYQCPKNGTAVCATNRRSFPTYCQQKSLECLHPGTKFLNNGTCTAEGKFSVSLKHGNTDSEGIVEVKLVDQDKTMFICKSSWSMREANVACLDLGFQQGADTQRRFKLSDLSINSTECLHVHCRGLETSLAECTFTKRRTMGYQDFADVVCYTQKADSPMDDFFQCVNGKYISQMKACDGINDCGDQSDELCCKACQGKGFHCKSGVCIPSQYQCNGEVDCITGEDEVGCAGFASVTQEETEILTADMDAERRRIKSLLPKLSCGVKNRMHIRRKRIVGGKRAQLGDLPWQVAIKDASGITCGGIYIGGCWILTAAHCLRASKTHRYQIWTTVVDWIHPDLKRIVIEYVDRIIFHENYNAGTYQNDIALIEMKKDGNRKDCELPRSIPACVPWSPYLFQPNDTCIVSGWGREKDNERVFSLQWGEVKLISNCSKFYGNRFYEKEMECAGTYDGSIDACKGDSGGPLVCMDANNVTYVWGVVSWGENCGKPEFPGVYTKVANYFDWISYHVGRPFISQYNV
